Among all 200,000 compounds or so, about 4,500 (2.2%) were called active. This list was built around the results that the source calls inconclusive (neither active nor inactive); the mix of calls is not that of the screen. The call rests on the fitted dose curve; in most records, active means well fitted inhibition curve with a large enough effect; inconclusive means small, poorly fitted or top-dose-only effect, or effect the other way; inactive means flat fitted curve, though single readings scatter. Potencies of inconclusive entries are doubtful fits and often do not repeat.
target: Cruzipain (Trypanosoma cruzi) (UniProt P25779); test: qHTS Assay for Promiscuous and Specific Inhibitors of Cruzain (without detergent); conditions: purified cruzain, Z-FR-AMC fluorescence, no detergent; further: nearly all actives have a fitted effect of over 40% in size;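 on max response, negative = inhibition: plate controls were enzyme without inhibitor for no effect and buffer without enzyme for full effect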
Procedure, shortened: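 Detergent-free condition (0.00005% Triton X-100) in acetate buffer pH 5.5 with DTT. 1.5 nM enzyme and compound were pre-mixed 15 min, then 2 uM Z-FR-AMC substrate added; reaction progress from fluorescence change between first and third reads (60 s).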
Potency means the concentration at half of the fitted maximal effect; tags describe the fitted curve by direction and shape.

Sequence of UniProt P25779 (P25779 whole entry, looked up): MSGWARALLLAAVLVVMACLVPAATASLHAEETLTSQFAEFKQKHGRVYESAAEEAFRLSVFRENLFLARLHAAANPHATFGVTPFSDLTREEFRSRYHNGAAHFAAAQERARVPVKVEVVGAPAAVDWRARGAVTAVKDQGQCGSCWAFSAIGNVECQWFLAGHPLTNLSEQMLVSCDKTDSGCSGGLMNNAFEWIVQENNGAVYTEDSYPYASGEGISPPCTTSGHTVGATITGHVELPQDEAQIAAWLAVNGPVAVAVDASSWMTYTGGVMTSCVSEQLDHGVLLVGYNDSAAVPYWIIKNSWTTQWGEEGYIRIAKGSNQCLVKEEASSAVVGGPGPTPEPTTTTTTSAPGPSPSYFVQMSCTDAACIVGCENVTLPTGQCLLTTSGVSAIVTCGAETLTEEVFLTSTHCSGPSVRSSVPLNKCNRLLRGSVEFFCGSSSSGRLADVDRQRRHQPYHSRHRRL

SMILES	Potency	max response, negative = inhibition
CCSc1nnc(NC(=O)c2cc(-c3ccc(C)c(C)c3O)n[nH]2)s1	active: 3.98 µM	–
Cc1ccc(S(=O)(=O)c2cn(CC(=O)Nc3ccc4c(c3)OCO4)c3ccccc3c2=O)cc1C	inconclusive: 31.6 µM [inhibitor, single point]	–
CC(=O)Nc1ccc(-c2nnc(SCC(=O)c3ccc4c(c3)Cc3ccccc3-4)n2C)cc1	inconclusive: 25.1 µM [activator, single point]	–
COc1ccc2cc(CNc3ccc(C)cc3)c(=O)n(CC(=O)Nc3cccc(C(F)(F)F)c3)c2c1	inconclusive: 39.8 µM [inhibitor, single point]	–
CC(=O)c1c(N2CCN(Cc3ccccc3)CC2)[nH]c(-c2ccccc2)nc1=S	active: 10 µM	–
COc1cccc(C(=O)Nc2cccc(C(=O)OCc3cc(=O)n4c5c(sc4n3)CCCC5)c2)c1	–	inactive: -0.18%
COc1ccc(C(=O)COC(=O)C2CCN(S(=O)(=O)c3cccc4cccnc34)CC2)cc1	inconclusive: 39.8 µM [activator, single point]	–
COc1ccccc1NC(=O)Cn1nnc(C(=O)Nc2ccccc2Br)c1N	inconclusive: 39.8 µM [inhibitor, single point]	–
CCn1c(C(=O)N2CCC(C(=O)N3CCN(c4ccccn4)CC3)CC2)cc2sccc21	inconclusive: 31.6 µM [activator, single point]	–
COC(=O)N[C@@H](c1cccc(C)c1)[C@@H](C)[N+](=O)[O-]	–	inactive: -3.19%
COc1cc(OC)c(N(C)C(=O)Cn2ncc3c(=O)oc4ccccc4c32)cc1Cl	–	inactive: -10%
COC(=O)c1ccccc1NC(=O)N1CCC(n2c(C)nc3cccnc32)CC1	inconclusive: 39.8 µM [activator, single point]	–
Cc1cc2cc(CNC(=O)c3ccc4c(c3)OCO4)ccc2n1C	active: 20 µM	–
CCCC(=O)Nc1ccc(C(=O)NNC(=O)COc2ccc(Br)c(C)c2)cc1	inconclusive: 39.8 µM [inhibitor, single point]	–
COC(=O)[C@@]1(Cc2ccc(OC)cc2)[C@H]2c3cc(C(=O)N(C)C)n(Cc4ccc(C)o4)c3C[C@H]2CN1C(=O)c1ccccc1	inconclusive: 39.8 µM [activator, single point]	–
COc1ccc(-c2ccc(-c3noc(-c4cccs4)n3)c(OC)n2)cc1	inconclusive: 25.1 µM [inhibitor, single point]	–
Cc1ccc(-c2noc(CNC(=O)c3ccc(C)c(Cl)c3)n2)cc1	–	inactive: 4.75%
CCc1ccc(OCC(=O)N(Cc2ccc(C(C)C)cc2)C2CCS(=O)(=O)C2)cc1 (stereo not given)	inconclusive: 12.6 µM [activator, partial curve]	–
COC(=O)c1cc(-c2ccc3ccccc3c2)[nH]c(=O)c1C#N	–	inactive: 8.27%
Cc1c(C(=O)N/N=C/c2ccccc2)[nH]c2ccc(Cl)cc12	–	inactive: -1.89%
CCc1ccccc1NC(=O)CN(C)C(=O)CSc1nnc(Nc2cccc(C)c2C)s1	inconclusive: 20 µM [activator, partial curve]	–
COc1cccc(-c2cc(C(F)(F)F)n3ncc(C(=O)OC(C)C)c3n2)c1	–	inactive: -13.6%

SMILES	Potency	max response, negative = inhibition
COC(=O)c1sc2ccccc2c1-n1cccc1C(=O)C(=O)Nc1ccc(F)cc1	inconclusive: 31.6 µM [inhibitor, partial curve, poor fit]	–
O=C1Nc2ccccc2/C1=N/c1sc2c(c1C(=O)NCCc1ccccc1)CCCC2	inconclusive: 25.1 µM [inhibitor, single point]	–
Cc1ccc(CNC(=O)Cn2ccn(-c3cccc(Cl)c3)c(=O)c2=O)cc1	–	inactive: -0.173%
COc1ccc(-c2c(C)cc3oc(=O)cc(-c4ccccc4)c3c2C)cc1	active: 31.6 µM	–
CCOC(=O)N/N=C/c1c(C)nn(-c2ccccc2Cl)c1Cl	–	inactive: -1.71%
CCOc1cc(NC(=O)c2ccco2)c(OCC)cc1NC(=O)Cc1ccc(OC)c(OC)c1	inconclusive: 31.6 µM [activator, single point]	–
O=C(Cn1cnc2sc(-c3ccccc3)cc2c1=O)NCc1ccco1	inconclusive: 25.1 µM [inhibitor, single point]	–
CCN1CCCC1Cn1c(-c2ccccc2)nc2c(N3CCOCC3)nc(C)nc21 (stereo not given)	–	inactive: -2.81%
CC(=O)C[C@H](c1ccc([N+](=O)[O-])cc1)c1c(O)c2ccccc2oc1=O	–	inactive: 1.57%
O=S(=O)(NCCc1nnc2ccc(SCc3ccccc3Cl)nn12)c1ccccc1	inconclusive: 39.8 µM [activator, single point]	–
CC(C)Cn1cc(NC(=O)N2CCN(c3cccc(C(F)(F)F)c3)CC2)c2ccccc2c1=O	inconclusive: 39.8 µM [activator, single point]	–
COc1ccc(/C=N/NC(=O)c2cccc(Br)c2)cc1Cn1cc(Cl)cn1	inconclusive: 31.6 µM [inhibitor, single point]	–
S=C(Nc1ccc2nsnc2c1)NC1CCCCC1	inconclusive: 39.8 µM [inhibitor, single point]	–
CCCCSc1nnc2c(n1)OC(c1ccc(Br)s1)Nc1ccccc1-2 (stereo not given)	–	inactive: 0.568%
CCCCSCCCNC(=O)CS(=O)Cc1nc(-c2cccc(C)c2)oc1C (stereo not given)	inconclusive: 25.1 µM [activator, partial curve]	–
O=C(CCN1C(=O)/C(=C/C=C/c2ccccc2)SC1=S)Nc1cccnc1	inconclusive: 39.8 µM [inhibitor, single point]	–
CCCOC(=O)c1c(NC(=O)c2cnn3c2NC(c2ccccc2)CC3C(F)(F)F)sc2c1CCCC2 (stereo not given)	active: 5.01 µM	–
COc1ccc2nc(NC(=O)CSc3nc4cccnc4n3C)sc2c1	inconclusive: 7.94 µM [activator, full curve]	–
COc1ccc(N2CCN(C(CNC(=O)c3ccc(OC)c(OC)c3)c3cccnc3)CC2)cc1 (stereo not given)	inconclusive: 31.6 µM [activator, single point]	–
CCOCCCN(Cc1ccco1)C(=O)c1cc2c(s1)-c1c(C)cccc1OC2	inconclusive: 39.8 µM [activator, single point]	–
Cc1cc(-c2csc(N)n2)c(C)n1-c1ccccc1	active: 25.1 µM	–
CCOc1ccccc1N1CSC2=C(C#N)C(c3c(OC)ccc4ccccc34)CC(=O)N2C1 (stereo not given)	active: 15.8 µM	–

SMILES	Potency	max response, negative = inhibition
COc1ccc(OC)c(NC(=O)c2nc(S(=O)(=O)Cc3ccc(F)cc3)ncc2Cl)c1	inconclusive: 31.6 µM [activator, single point]	–
COc1ccccc1Cn1nnc2c(=O)[nH]c(C3CCN(C(=O)c4ccc(F)cc4)CC3)nc21	inconclusive: 39.8 µM [activator, single point]	–
COc1ccc(C(=O)CSc2nc(N)nc(SC)c2C#N)cc1	inconclusive: 31.6 µM [inhibitor, single point]	–
COCCn1c(=O)cnc2cnc(OC)nc21	–	inactive: -14.3%
CCCCN1Cc2cc(C(=O)c3cc(OC)ccc3O)cnc2NC1=O	inconclusive: 39.8 µM [inhibitor, single point]	–
CCCCOc1ccc(C(=O)N/C(=C/C=C/c2ccccc2)C(=O)NCCO)cc1	inconclusive: 39.8 µM [activator, single point]	–
CCCCNc1ccccc1C(=O)OCC(=O)Nc1ccc(S(N)(=O)=O)cc1	inconclusive: 39.8 µM [inhibitor, single point]	–
COc1ccc(C(=O)Nc2ccc(Cl)cc2C(=O)N2CCCC(C)C2)cc1OC (stereo not given)	inconclusive: 31.6 µM [activator, single point]	–
Cc1ccc(C)c(Cn2c(=O)n(CCC(=O)NCc3ccco3)c(=O)c3sccc32)c1	inconclusive: 39.8 µM [inhibitor, single point]	–
Cc1nc2cnc(N(C)C)nc2n(C2CC2)c1=O	–	inactive: -3.41%
O=C(c1ccccc1)[C@H](Nc1ccc2ccccc2c1)c1ccccc1	–	inactive: -5.27%
CCOC(=O)c1c(-c2ccc(OC)cc2)csc1/N=C/C1=C(O)CCCC1=O	inconclusive: 39.8 µM [activator, single point]	–
CC(C)CCn1c(=O)c(C(=O)N/N=C/c2cccc(F)c2)c(O)c2ccccc21	inconclusive: 25.1 µM [inhibitor, partial curve, poor fit]	–
COc1ccc(C2=NC(c3ccccc3)=Nc3ccc(C)cc3N2)cc1	inconclusive: 12.6 µM [inhibitor, partial curve]	–
CN(c1ccc(OCC(=O)OCC(=O)Nc2ccc(Br)cc2)cc1)S(=O)(=O)c1cccs1	inconclusive: 39.8 µM [inhibitor, single point]	–
CCCOc1ccc(C2c3c(oc4ccccc4c3=O)C(=O)N2c2nnc(C(C)C)s2)cc1 (stereo not given)	–	inactive: -3.08%
COc1ccccc1CNC(=O)c1ccc(N2CCCC2)c(NC(=O)NCc2ccc(C)cc2)c1	–	inactive: 8.45%
O=C(NCc1ccccc1)C(c1ccc(F)cc1)N(Cc1ccc2c(c1)OCO2)C(=O)Cn1nnc(-c2cccs2)n1 (stereo not given)	active: 12.6 µM	–
CCN(CC)c1ccc(/C=N/N(c2ccccc2)c2ccccc2)c(O)c1	inconclusive: 15.8 µM [inhibitor, partial curve, poor fit]	–
COCCNC(=O)C(c1ccc(C)o1)N(Cc1ccc(OC)cc1)C(=O)Cn1nnc2ccccc21 (stereo not given)	inconclusive: 31.6 µM [activator, single point]	–
CCN(c1ccc(OC)cc1)S(=O)(=O)c1ccc2[nH]c3c(c2c1)CCCCC3	inconclusive: 25.1 µM [inhibitor, single point]	–
